Laboratory results taken from a collection of fitness landscapes (doi:10.1126/science.1257360).
This is one part of the list.

B1: PhoQ; a variant is named by its letters at X, in order, P23837 (parent)
chain: MKKLLRLFFPLSLRVRFLLATAAVVLVLSLAYGMVALIGYSVSFDKTTFRLLRGESNLFYTLAKWENNKLHVELPENIDKQSPTMTLIYDENGQLLWAQRDVPWLMKMIQPDWLKSNGFHEIEADVNDTSLLLSGDHSIQQQLQEVREDDDDAEMTHSVAVNVYPATSRMPKLTIVVVDTIPVELKSSYMVWSWFIYVLSANLLLVIPLLWVAAWWSLRPIEALAKEVRELEEHNRELLNPATTRELTSLVRNLNRLLKSERERYDKYRTTLTDLTHSLKTPLXXLQXXLRSLRSEKMSVSDAEPVMLEQISRISQQIGYYLHRASMRGGTLLSRELHPVAPLLDNLTSALNKVYQRKGVNISLDISPEISFVGEQNDFVEVMGNVLDNACKYCLEFVEISARQTDEHLYIVVEDDGPGIPLSKREVIFDRGQRVDTLRPGQGVGLAVAREITEQYEGKIVAGESMLGGARMEVIFGRQHSAPKDE

Variants of: B1
Test: enrichment ratio after two sorts for PhoP signalling (ratio (wild type AVST 3.29)); higher = more functional
Settings: with PhoP (E. coli)

| Variant | enrichment ratio |
| --- | --- |
| RPMY | ≤ 0.25 |
| QALM | 10.2 |
| EHKA | ≤ 0.25 |
| RTWK | ≤ 0.25 |
| IGHP | ≤ 0.25 |
| YRVH | ≤ 0.25 |
| NQWD | ≤ 0.25 |
| FAFK | ≤ 0.25 |
| DDLN | ≤ 0.25 |
| NEMW | ≤ 0.25 |
| PESI | ≤ 0.25 |
| LMFT | ≤ 0.25 |
| ASER | ≤ 0.25 |
| FIQC | ≤ 0.25 |
| SCGF | 6.99 |
| WKNF | ≤ 0.25 |
| FIKV | ≤ 0.25 |
| YCTW | ≤ 0.25 |
| HAYY | ≤ 0.25 |
| EFNP | ≤ 0.25 |
| YVFY | ≤ 0.25 |
| NGYP | ≤ 0.25 |
| SMAQ | 15.5 |
| EPDM | ≤ 0.25 |
| RVNQ | ≤ 0.25 |

| Variant | enrichment ratio |
| --- | --- |
| GRNW | ≤ 0.25 |
| VADF | ≤ 0.25 |
| VLFV | ≤ 0.25 |
| DWQS | ≤ 0.25 |
| NSVC | ≤ 0.25 |
| EPKL | ≤ 0.25 |
| LGQV | ≤ 0.25 |
| GNVQ | 6.4 |
| INRF | ≤ 0.25 |
| GSKD | ≤ 0.25 |
| DLPP | ≤ 0.25 |
| YCPF | ≤ 0.25 |
| HRHT | ≤ 0.25 |
| AIWS | ≤ 0.25 |
| AVYQ | ≤ 0.25 |
| YRPN | ≤ 0.25 |
| HDYE | ≤ 0.25 |
| TYMR | ≤ 0.25 |
| YPDE | ≤ 0.25 |
| HCMI | ≤ 0.25 |
| SIWK | 4.31 |
| VAMP | ≤ 0.25 |
| KRTR | ≤ 0.25 |
| NELH | 2.12 |
| EHNH | ≤ 0.25 |

| Variant | enrichment ratio |
| --- | --- |
| GSSK | ≤ 0.25 |
| NSKP | ≤ 0.25 |
| MCIQ | ≤ 0.25 |
| QNTQ | ≤ 0.25 |
| PRRC | ≤ 0.25 |
| KGKA | ≤ 0.25 |
| GQGL | ≤ 0.25 |
| WIVD | ≤ 0.25 |
| PGTV | ≤ 0.25 |
| IEEY | ≤ 0.25 |
| LIVP | ≤ 0.25 |
| ACAV | 3.32 |
| VPRP | ≤ 0.25 |
| WFTV | ≤ 0.25 |
| NPSI | ≤ 0.25 |
| RLDE | ≤ 0.25 |
| FFCS | ≤ 0.25 |
| FVTM | 1.76 |
| GCYF | ≤ 0.25 |
| HPVV | ≤ 0.25 |
| PKIV | ≤ 0.25 |
| IPSV | ≤ 0.25 |
| MKDY | ≤ 0.25 |
| RGCY | ≤ 0.25 |
| AMGI | 6.8 |

| Variant | enrichment ratio |
| --- | --- |
| LQSC | ≤ 0.25 |
| VTEW | ≤ 0.25 |
| NITY | ≤ 0.25 |
| TTAC | 3.47 |
| EDSH | ≤ 0.25 |
| ELSA | ≤ 0.25 |
| SFYF | ≤ 0.25 |
| QYGA | ≤ 0.25 |
| PFQP | ≤ 0.25 |
| EDPE | ≤ 0.25 |
| ANAY | 36.4 |
| WLIV | ≤ 0.25 |
| PCQP | 0.47 |
| YPKR | ≤ 0.25 |
| VEGG | ≤ 0.25 |
| TFFC | ≤ 0.25 |
| SVTC | 3.84 |
| HYPF | ≤ 0.25 |
| NGKM | ≤ 0.25 |
| DQSC | ≤ 0.25 |
| MQEA | ≤ 0.25 |
| HCSF | ≤ 0.25 |
| IDHR | ≤ 0.25 |
| SDTG | ≤ 0.25 |
| NNKP | ≤ 0.25 |

| Variant | enrichment ratio |
| --- | --- |
| DLIG | ≤ 0.25 |
| VSEI | ≤ 0.25 |
| TCTR | 4.24 |
| WRPS | ≤ 0.25 |
| WRMC | ≤ 0.25 |
| SIYF | ≤ 0.25 |
| FALG | 6.82 |
| EGFN | ≤ 0.25 |
| RQYW | ≤ 0.25 |
| PCPQ | ≤ 0.25 |
| PVYL | ≤ 0.25 |
| REHG | ≤ 0.25 |
| YTNE | ≤ 0.25 |
| HVSV | ≤ 0.25 |
| NTPK | ≤ 0.25 |
| QIHN | ≤ 0.25 |
| QYED | ≤ 0.25 |
| LENM | ≤ 0.25 |
| WDLF | ≤ 0.25 |
| VYPY | ≤ 0.25 |
| KSWW | ≤ 0.25 |
| VNMY | ≤ 0.25 |
| MCAE | ≤ 0.25 |
| MHYI | ≤ 0.25 |
| LGCR | ≤ 0.25 |

| Variant | enrichment ratio |
| --- | --- |
| GHGM | ≤ 0.25 |
| THYT | ≤ 0.25 |
| FSRQ | ≤ 0.25 |
| HSYQ | ≤ 0.25 |
| YTYQ | ≤ 0.25 |
| LACH | ≤ 0.25 |
| MLGP | ≤ 0.25 |
| RQAG | ≤ 0.25 |
| HQRH | ≤ 0.25 |
| TDDT | ≤ 0.25 |
| FSEN | ≤ 0.25 |
| ILPD | ≤ 0.25 |
| WHCK | ≤ 0.25 |
| GKAA | ≤ 0.25 |
| NSKK | ≤ 0.25 |
| DAVL | ≤ 0.25 |
| YSIE | ≤ 0.25 |
| YNYK | ≤ 0.25 |
| PWQS | ≤ 0.25 |
| RECK | ≤ 0.25 |
| QKSH | ≤ 0.25 |
| YAPD | ≤ 0.25 |
| MGPI | ≤ 0.25 |
| HCAF | ≤ 0.25 |
| WWFR | ≤ 0.25 |

| Variant | enrichment ratio |
| --- | --- |
| NVIF | ≤ 0.25 |
| QAHI | 0.526 |
| FWRY | ≤ 0.25 |
| INFM | ≤ 0.25 |
| YNYQ | ≤ 0.25 |
| IGFE | ≤ 0.25 |
| RSPE | ≤ 0.25 |
| WSRK | ≤ 0.25 |
| TPYG | ≤ 0.25 |
| ASAL | 11.7 |
| IGKY | ≤ 0.25 |
| KLES | ≤ 0.25 |
| HPLH | ≤ 0.25 |
| WRFL | ≤ 0.25 |
| EVED | ≤ 0.25 |
| VPWM | ≤ 0.25 |
| ASDE | ≤ 0.25 |
| KSTP | ≤ 0.25 |
| PWAR | ≤ 0.25 |
| ICFE | ≤ 0.25 |
| TGKW | ≤ 0.25 |
| FRNY | ≤ 0.25 |
| AKFI | ≤ 0.25 |
| SLHV | 0.521 |
| QDNG | ≤ 0.25 |

| Variant | enrichment ratio |
| --- | --- |
| SVVY | ≤ 0.25 |
| TTHC | 3.4 |
| DTPY | ≤ 0.25 |
| PGVQ | ≤ 0.25 |
| LTPT | ≤ 0.25 |
| EQSH | ≤ 0.25 |
| EDFR | ≤ 0.25 |
| NNIS | ≤ 0.25 |
| NPMG | ≤ 0.25 |
| TTKK | ≤ 0.25 |
| AYVG | ≤ 0.25 |
| TYWH | ≤ 0.25 |
| QEEA | ≤ 0.25 |
| NMFH | ≤ 0.25 |
| NFGH | ≤ 0.25 |
| FRFL | ≤ 0.25 |
| FQGT | ≤ 0.25 |
| DQLP | ≤ 0.25 |
| GQLN | 0.908 |
| FYII | ≤ 0.25 |
